Laboratory results reported in publication PMC4336329 (PLoS ONE, 2015).
Hit rate of the full screen: of about 310,000 compounds, about 2,200 (0.71%) showed an effect of 50% or more. Effects have a minus sign here. The list shows a part of the results.

molecular target: human ether-à-go-go-related gene (hERG) potassium channel (human, UniProt Q12809); assay: primary screen, population patch clamp on CHO cells stably expressing hERG
Sequence (Q12809 whole entry, looked up): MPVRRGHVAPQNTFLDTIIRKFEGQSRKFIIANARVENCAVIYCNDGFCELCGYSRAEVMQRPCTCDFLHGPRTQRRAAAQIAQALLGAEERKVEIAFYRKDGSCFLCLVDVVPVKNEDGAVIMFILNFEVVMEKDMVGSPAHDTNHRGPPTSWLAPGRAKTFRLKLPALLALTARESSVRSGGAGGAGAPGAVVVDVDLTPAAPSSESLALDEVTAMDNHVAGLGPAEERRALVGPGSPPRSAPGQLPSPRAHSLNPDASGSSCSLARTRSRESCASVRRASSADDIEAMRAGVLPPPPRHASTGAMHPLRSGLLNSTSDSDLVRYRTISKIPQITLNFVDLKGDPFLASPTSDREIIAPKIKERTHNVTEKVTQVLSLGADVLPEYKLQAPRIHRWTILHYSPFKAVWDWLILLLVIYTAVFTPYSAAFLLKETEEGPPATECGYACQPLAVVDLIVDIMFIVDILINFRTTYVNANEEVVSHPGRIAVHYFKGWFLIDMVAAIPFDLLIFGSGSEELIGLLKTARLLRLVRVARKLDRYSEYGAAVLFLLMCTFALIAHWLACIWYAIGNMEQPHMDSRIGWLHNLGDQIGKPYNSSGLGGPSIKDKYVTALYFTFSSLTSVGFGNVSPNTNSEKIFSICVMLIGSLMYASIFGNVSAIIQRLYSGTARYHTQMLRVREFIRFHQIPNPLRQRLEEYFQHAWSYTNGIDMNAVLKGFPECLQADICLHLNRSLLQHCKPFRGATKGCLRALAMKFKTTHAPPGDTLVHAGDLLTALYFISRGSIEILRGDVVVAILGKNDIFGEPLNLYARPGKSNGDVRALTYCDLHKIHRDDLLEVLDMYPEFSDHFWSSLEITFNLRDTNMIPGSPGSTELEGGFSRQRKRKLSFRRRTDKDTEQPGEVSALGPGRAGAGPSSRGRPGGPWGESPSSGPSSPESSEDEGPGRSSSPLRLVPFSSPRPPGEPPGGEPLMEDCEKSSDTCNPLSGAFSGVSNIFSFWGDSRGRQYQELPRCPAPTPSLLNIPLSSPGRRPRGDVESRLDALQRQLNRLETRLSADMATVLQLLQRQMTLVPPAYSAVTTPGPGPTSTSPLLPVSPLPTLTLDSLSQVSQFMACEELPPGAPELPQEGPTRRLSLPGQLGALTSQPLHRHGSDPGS

Structure (SMILES) | hERG current change (%, negative = inhibition) at 1uM [%]
CC#CC[N+](C)(C)CCCCCC.[Cl-] | 14.4
CCOC(=O)C1=NN(c2ccc(OC)cc2)C(c2ccccc2)CC1=O (stereo not shown) | 8.31
CCOC(=O)c1sc(NC(=O)CCN2CCN(CC)CC2)c(C(=O)OCC)c1C | -59.8
Cc1ccc(C)c(C(=O)n2cnnc2N)c1 | 10.1
CC(C)(C)NC(=O)C(=O)NNC(=O)c1ccccc1Br | 3.35
Cc1cccc2c1N(CCCOc1ccc(C(C)(C)C)cc1)C(=O)C2=O | 5.93
CC(C)CCn1c(O)c(N=NC(=O)Cn2ccc(C(F)(F)F)n2)c2ccccc21 | 3.71
Cc1noc(C)c1CSc1nnc2sc3ccccc3n12 | 0.273
CC(OC(=O)C12CCC(=O)N1c1ccccc1S2)C(=O)Nc1cccc(Cl)c1 (stereo not shown) | 4.74
Cn1c(CNC(=O)c2ccc3c(c2)OCO3)nnc1SCC(=O)Nc1ccc(F)cc1F | 8.18
COc1ccccc1C1NC(c2ccccc2OC)C(C)C(=O)C1C (stereo not shown) | -17.9
COC(=O)C1=C(C(C)=O)C(c2ccc(C(=O)OC)cc2)n2nnnc2N1 (stereo not shown) | 9.32
CCN1C(=O)[C@H]2[C@@H](c3ccc(-c4ccc(C(C)=O)cc4)cc3)N3CCC[C@@]3(C(=O)OC)[C@H]2C1=O.O=C(O)C(F)(F)F | 4.66
COc1cc(/C=C/C(=O)O)cc(S(=O)(=O)Nc2ccc3cn[nH]c3c2)c1OC | 6.67
O=C(NNC(=S)Nc1ccccc1)c1cccc(Br)c1 | 10
CCOC(=O)c1ccc(-n2c(CCC(=O)O)ccc2-c2cccs2)cc1 | 12.4
O=C(CCNC(=O)c1ccco1)Nc1ccc(OC(F)F)c(Cl)c1 | 0.759
Cn1c(=O)[nH]c(=O)c2c1nc(N1CCOCC1)n2CC(=O)c1ccccc1 | 5.78
CC(=O)OCC(=O)c1c[nH]c2ccccc12 | 14.1
CC(=O)c1cccc(NC(=O)[C@@H](NC(N)=O)C(C)C)c1 | 24.6
CC(=O)Nc1ccc(S(=O)(=O)N2CCN(c3nc(NC4CCCC4)c4ccccc4n3)CC2)cc1 | -47.7
O=C1NC(c2ccccc2)=NC1(NS(=O)(=O)c1ccc(Cl)cc1)C(F)(F)F (stereo not shown) | 5.71

Structure (SMILES) | hERG current change (%, negative = inhibition) at 1uM [%]
CC(C)c1ccc(NC(=O)COc2nnc(-c3cccs3)c(-c3cccs3)n2)cc1 | 13.9
COC(=O)[C@@H]1C[C@@H]2CC[C@@H](O)C[C@@H]2N1Cc1ccc(OC)cc1 | 7.58
COc1cc(/C=N/NC(=O)c2ccccn2)ccc1OC(=O)c1ccc(Br)cc1 | 4.42
N#Cc1ccccc1CSC1=NCCS1 | 16
Cc1c(Cl)cccc1NC(=S)NCCC(c1ccccc1)c1ccccc1 | 8.68
COc1ncc(-c2ccc3c(c2)S(=O)(=O)c2cccc(C(=O)O)c2C3=O)cn1 | 9.9
COc1ccc(N2CCN(CCNC(=O)Nc3ccc(Cl)cc3)CC2)cc1 | -23.8
COc1ccc(-c2noc(COc3ccc(C)c(C)c3)n2)cc1OC | 6.98
CCCOc1ccc(Oc2ccc(S(=O)(=O)N3CCN(C)CC3)cn2)cc1 | 12.9
Cc1nnc2sc(-c3ccc(-c4ccc(Cl)c(C(F)(F)F)c4)o3)nn12 | 15.1
CCC1CCCCN1CCCNC(=O)c1nn(C)c2c1CS(=O)(=O)c1ccccc1-2 (stereo not shown) | 9.59
Cc1ccc(NC(=O)c2nc[nH]c2C(=O)N2CCCCC2)c(C(=O)c2ccccc2)c1 | 6.56
O=C(CSc1ccc2c(c1)OCCO2)Nc1ccc2c(c1)OCO2 | 2.4
C=CCOC(=O)C1=C(C)NC(=O)NC1C1CC=CCC1 (stereo not shown) | 11.3
O=C(Oc1ccc(F)cc1)c1cccnc1 | 13.9
COc1ccc(NC(=O)CSc2nc3ccccc3c(=O)n2CCCN2CCCCC2)c(OC)c1 | -27.7
COc1cc(NC(=O)CSc2c3c(nc4ccccc24)CCC3)cc(OC)c1OC | 6.55
CCCSc1nnc(CNS(=O)(=O)c2ccc(C)cc2)n1C | 7.18
O=C(CN1C(=O)C2C3CCC(C3)C2C1=O)OCC(=O)c1ccccc1 (stereo not shown) | 5.04
CC(=O)NC(CC(=O)c1ccc([N+](=O)[O-])cc1)C(Cl)(Cl)Cl (stereo not shown) | -8.69
Cc1cc(C(=O)CN2C(=O)C(=O)N(C3CCCC3)C2=O)c(C)n1-c1ccc(F)cc1 | 5.93
N#Cc1ccc2ccn(CC(=O)NC3CCCCC3)c2c1 | 11.6

Structure (SMILES) | hERG current change (%, negative = inhibition) at 1uM [%]
C=CCn1c2c(c(=O)[nH]c1=S)CN(C(C)c1ccccc1)CN2 (stereo not shown) | 15.7
COc1ccc(-c2[nH]c(-c3ccccc3)nc2SCC(=O)NC2CCCC2)cc1 | 7.57
Cc1ccc(-c2cc(=O)c3cc(Cl)ccc3[nH]2)cc1 | 12.9
Cc1nc2ccc(C(=O)Nc3ccc4nc[nH]c4c3)cc2[nH]1 | 9.4
COc1ccccc1NS(=O)(=O)c1cn(C)cn1 | 10.3
CC(=O)c1ccc(OCCCC(=O)N2CCN(S(=O)(=O)c3cccs3)CC2)cc1 | -1.02
CC(CCc1ccccc1)NC(=O)COC(=O)c1ccc(NC(N)=O)cc1 (stereo not shown) | 10.7
Cc1nc2c(c(-c3ccccc3)c1C#N)C(=O)c1ccccc1-2 | 12.5
COc1ccc(-c2noc(C3CCCN(C(=O)c4ccccc4C)C3)n2)cc1 (stereo not shown) | 14
c1csc(-c2nc(-c3ccncc3)no2)c1 | 13.5
COc1ccccc1NC(=O)COC(=O)C1CCN(/C=C/C(=O)C(F)(F)F)CC1 | -25.2
CCc1ccc(C2C(C#N)=C(N)OC3=C2C(=O)CCC3)s1 (stereo not shown) | 10.4
O=C(CSc1nc2ncc(Cl)cc2[nH]1)c1c[nH]c2ccccc12 | 11.8
O=C(O)c1cccc2c3c([nH]c12)CCCC3 | 16.3
CCOC(=O)CC1(NC(=O)C2CCC(=O)N(Cc3ccccc3OC)C2)CCCCC1 (stereo not shown) | -5.96
CC(=O)N1CCc2cc(Br)cc(S(=O)(=O)N3CCCCC3)c21 | 14.2
CCCNS(=O)(=O)c1cccc2cccnc12 | 1.61
CC(C)(C)C(=O)Nc1ccc(S(=O)(=O)N2CCC(c3nc4ccccc4[nH]3)CC2)cc1 | 13.9
CN(c1ccc(Cl)cc1)S(=O)(=O)c1nnc(NC(=O)C(C)(C)C)s1 | 7.32
Cc1cc(C)nc(NC(N)=NC2CCCCC2)n1 | -0.302
O=c1c(C=Nc2cccnc2Cl)c(O)n(CCCCl)c(=O)n1C1CCCCC1 | 9.45
Cc1cc(Nc2ccc(O)cc2)ccc1N | 9.97

Structure (SMILES) | hERG current change (%, negative = inhibition) at 1uM [%]
Cc1ccc(S(=O)(=O)CCC(=O)N2CCN(c3ccc([N+](=O)[O-])cc3)CC2)cc1 | -49.9
COc1ccccc1C(=O)COC(=O)CN1C(=O)NC2(CCCC2)C1=O | 17.2
COc1ccc(S(=O)(=O)N2c3cc(Cl)ccc3Oc3nc4ccccc4nc32)cc1 | 12.7
COC(C(=O)N/N=C(\C)c1ccc(O)cc1)c1ccccc1 (stereo not shown) | 5.44
COc1ccccc1Oc1cn[nH]c1-c1ccc(O)cc1O | 5.3
COc1ccc(NC(=O)N2CCCC(C(=O)Nc3cccc(C)c3C)C2)cc1 (stereo not shown) | 13.8
CC(=O)Nc1ccc(S(=O)(=O)N2CCN(C(=O)c3ncoc3-c3ccccc3F)CC2)cc1 | 13.2
COc1cccc(NC(=O)[C@@H](NC(=O)N2CCn3c2nc2ccccc23)C(C)C)c1 | 13.9
NC(=O)Cc1ccc(C(=O)c2ccc(F)cc2)s1 | 15.9
CCOC(=O)C1=c2s/c(=C\c3cccnc3)c(=O)n2C(N)=C(C(=O)OC)C1c1cccnc1 (stereo not shown) | 9.84
O=C(N/N=C/c1coc2ccccc2c1=O)c1cccc([N+](=O)[O-])c1 | 16.9
O=C(NCc1ccco1)C1CCN(S(=O)(=O)c2ccccc2C(F)(F)F)CC1 | 12.6
O=C1C2CC=CCC2C(=O)N1c1n[nH]c(-c2ccccc2)n1 (stereo not shown) | -0.784
O=C1CCCN1CCCNC(=S)Nc1ccccc1Cl | 6.58
Cc1cccc2c(=O)cc(C)n(CC(N)=O)c12 | 12.7
C/C(=N\NC(=O)c1nnn(-c2nonc2N)c1CN(C)c1ccccc1)c1ccc(O)cc1 | 12.7
COc1ccc(C(=O)NC(C)c2nnc(SCc3ccc(Cl)c(Cl)c3)n2C)cc1 (stereo not shown) | 12
Cc1sc2ncn(CC(=O)N3CCC4(CC3)OCCO4)c(=O)c2c1C | 10.9
CC1(C)N=C(N)N=C(N)N1c1ccc(Oc2ccc(Cl)cc2)c(Cl)c1.Cl | 9.79
Oc1ccc(Cl)cc1Nc1nc(NCC2CCCO2)c2ccccc2n1 (stereo not shown) | 17.6
CCN(CCCNC(=O)c1[nH]c(C)c(C(C)=O)c1C)c1ccccc1 | 6.49
COc1ccc(C(=O)N2CCCC(C(=O)c3ccccc3OC)C2)cc1OC (stereo not shown) | 5.31
